# Laboratory results: the supplement of paper PMC7826260
# Some of the results follow. Each Rep nickase domain was tested in vitro on the same pool of single strands (1 h at 37 °C, 3 µM enzyme); the outer parts of the 90-letter strands are left off. Uncut reads are compared with the no-enzyme pool on a log2 scale; the lower, the more was cut; hits are not called. Reads are scaled to the total; uncut strands gain when others are lost, and binding without cutting may add a little.
# Experiments:
# Assay in all cases: uncleaved DNA left, log2 of reads against the no-enzyme library (log2 ratio); higher = less cleavage (more negative = more Rep cleavage of the k-mer); sequences stand for … in CTCGTCCG…ACCGGAGA
# [1] = test system: T1, Rep nickase domain of Muscovy duck circovirus
# T1 sequence (residues 1-111, tag not shown): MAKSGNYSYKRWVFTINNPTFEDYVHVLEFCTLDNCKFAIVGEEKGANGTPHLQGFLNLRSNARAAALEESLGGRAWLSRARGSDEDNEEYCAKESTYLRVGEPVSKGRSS
# Procedure: (§1)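 A pool of 90-nt single-stranded DNAs with seven random bases just before the constant AC of the nick site (name = the seven bases) was cut by 3 µM recombinant His6-SUMO-tagged Rep nickase domain (300 nM DNA, 50 mM HEPES pH 8.0, 50 mM NaCl, 1 mM MnCl2, 1 h, 37 °C, three replicates). Uncut DNA was amplified and sequenced.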
# [2] = test system: T2, Rep nickase domain of banana bunchy top virus
# T2 sequence (residues 1-94, tag not shown): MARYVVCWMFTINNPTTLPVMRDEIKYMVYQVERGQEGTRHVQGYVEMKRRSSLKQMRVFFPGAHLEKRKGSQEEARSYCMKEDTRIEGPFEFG
# Procedure: as §1
# [3] = test system: T3, Rep nickase domain of cabbage leaf curl virus
# T3 sequence (residues 1-116, tag not shown): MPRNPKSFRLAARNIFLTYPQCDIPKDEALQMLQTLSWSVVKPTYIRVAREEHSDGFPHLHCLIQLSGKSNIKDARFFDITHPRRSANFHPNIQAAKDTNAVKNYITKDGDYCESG
# Procedure: as §1
# [4] = test system: T4, Rep nickase domain of chickpea chlorotic dwarf virus
# T4 sequence (residues 1-124, tag not shown): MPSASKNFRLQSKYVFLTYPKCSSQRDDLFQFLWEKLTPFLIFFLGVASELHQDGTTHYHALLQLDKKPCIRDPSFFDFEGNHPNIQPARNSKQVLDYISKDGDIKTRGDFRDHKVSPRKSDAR
# Procedure: as §1
# [5] = test system: T5, Rep nickase domain of faba bean necrotic yellows virus
# T5 sequence (residues 1-98, tag not shown): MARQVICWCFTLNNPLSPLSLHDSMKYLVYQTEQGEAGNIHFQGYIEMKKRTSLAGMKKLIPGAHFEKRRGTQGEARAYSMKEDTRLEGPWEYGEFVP
# Procedure: as §1
# [6] = test system: T6, Rep nickase domain of maize striate mosaic virus
# T6 sequence (residues 1-117, tag not shown): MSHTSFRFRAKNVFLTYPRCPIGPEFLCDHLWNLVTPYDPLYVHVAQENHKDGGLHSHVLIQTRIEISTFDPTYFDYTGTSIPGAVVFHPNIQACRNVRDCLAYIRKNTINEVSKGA
# Procedure: as §1
# [7] = test system: T7, Rep nickase domain of porcine circovirus 2
# T7 sequence (residues 2-116, tag not shown): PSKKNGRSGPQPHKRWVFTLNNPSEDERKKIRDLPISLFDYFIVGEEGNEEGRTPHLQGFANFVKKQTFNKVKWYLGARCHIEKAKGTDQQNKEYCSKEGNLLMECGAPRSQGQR
# Procedure: as §1
# [8] = test system: T8, Rep nickase domain of tomato golden mosaic virus
# T8 sequence (residues 1-124, tag not shown): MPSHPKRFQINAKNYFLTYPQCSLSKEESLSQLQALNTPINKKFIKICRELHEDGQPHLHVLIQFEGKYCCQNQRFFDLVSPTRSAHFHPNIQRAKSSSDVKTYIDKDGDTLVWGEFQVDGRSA
# Procedure: as §1
# [9] = test system: T9, Rep nickase domain of tomato yellow leaf curl virus
# T9 sequence (residues 1-136, tag not shown): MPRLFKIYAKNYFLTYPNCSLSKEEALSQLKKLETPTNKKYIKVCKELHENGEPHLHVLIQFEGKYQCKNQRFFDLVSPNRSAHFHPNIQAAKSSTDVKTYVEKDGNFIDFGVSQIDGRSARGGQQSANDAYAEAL
# Procedure: as §1
# [10] = test system: T10, Rep nickase domain of wheat dwarf virus
# T10 sequence (residues 1-137, tag not shown): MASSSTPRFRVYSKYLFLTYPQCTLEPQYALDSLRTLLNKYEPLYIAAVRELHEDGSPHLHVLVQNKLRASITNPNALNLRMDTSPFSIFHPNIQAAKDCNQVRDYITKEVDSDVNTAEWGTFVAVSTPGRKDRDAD
# Procedure: as §1
Sequence,uncleaved DNA left (log2) [1],uncleaved DNA left (log2) [2],uncleaved DNA left (log2) [3],uncleaved DNA left (log2) [4],uncleaved DNA left (log2) [5],uncleaved DNA left (log2) [6],uncleaved DNA left (log2) [7],uncleaved DNA left (log2) [8],uncleaved DNA left (log2) [9],uncleaved DNA left (log2) [10]
GGTATCC,0.014,0.061,0.478,1.33,-0.0635,1.69,0.0988,0.0665,0.0897,0.134
AGAGCAT,-0.00943,0.0735,0.258,0.727,-0.00187,0.77,-0.0392,-0.0282,-0.0292,0.0905
AGAAGCT,0.0233,0.0526,0.13,0.472,-0.0836,0.441,0.0635,0.0709,-0.0383,0.111
GCTACGA,0.0888,-0.0124,0.0411,-0.0412,-0.13,-0.505,0.0518,-0.109,-0.0976,0.0414
ACCCCTC,0.0385,-0.0237,-0.0538,-0.0235,0.0679,-0.23,0.057,0.0159,-0.0563,0.0291
TTAAGTT,-0.0262,-0.124,-3.12,-3.34,-0.0754,-1.41,-0.324,-0.627,-0.0818,-1.67
GAGAGTA,0.214,0.0562,0.436,0.237,0.0269,1.1,-1.1,0.0484,0.17,0.181
GCCAGGC,-0.139,-0.0885,0.0318,0.262,0.0514,-0.438,0.0882,0.0447,-0.00656,-0.0905
ACGCGCT,-0.008,0.0192,-0.711,-0.928,-0.086,-1.24,0.0847,0.00194,-0.0978,-0.144
ACGGCCA,-0.0832,-0.0169,-0.183,-0.574,-0.0644,-0.362,-0.136,-0.00262,-0.0732,-0.127
GAGCGCC,0.111,-0.0166,0.158,0.552,-0.0208,0.837,0.0428,0.137,0.0969,0.12
GAACGTC,-0.0385,-0.0603,0.272,0.328,-0.139,0.799,-0.00417,-0.0782,-0.0535,-0.0192
TATAGGC,0.0393,-0.0959,0.288,0.495,0.0661,-0.038,0.0549,-0.00235,-0.0528,-0.0351
ACGTTCA,0.0484,-0.0421,-0.153,-1.19,0.00362,-0.497,-0.0518,0.0743,0.00367,0.0158
CAAATTG,0.187,0.168,-0.497,-0.757,0.162,-1.04,0.308,0.205,0.227,0.098
